Measurements as given in a collection of fitness landscapes (doi:10.1016/j.celrep.2020.107928).
The full ranking holds about 81,000 sequences; the median of “one-hybrid fitness for binding parS DNA” is about -0.17, and the highest 2% start at about 0.51. Some of the results follow.

B1: Caulobacter ParB omega fusion; a variant is named by its letters at X, in order, B8GW30 (parent)
chain: MESVVVGEPGMSEGRRGLGRGLSALLGEVDAAPAQAPGEQLGGSREAPIEILQRNPDQPRRTFREEDLEDLSNSIREKGVLQPILVRPSPDTAGEYQIVAGERAWRAAQRAGLKTVPIMVRELDDLAVLEIGIIENVQRADLNVLEEALSYKVLMEKFERTQENIAQTIGKSXSHVANXMRLLXLPDEVQSYLVSGELTAXHARAIAAAADPVALAKQIIEGGLSVRETEALARKAPNLSAGKSKGGRPPRVKDTDTQALESDLSSVLGLDVSIDHRGSTGTLTITYATLEQLDDLCNRLTRGI

Variants of: B1
Test: one-hybrid fitness for binding parS DNA (scaled: cognate 1, non-cognate 0); higher = stronger binding
Conditions: with parS DNA site
Summary of the method: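 On M9-minus-histidine containing 0.1 mM IPTG and 5 mM 3-AT, E. coli USO cells with a HIS3 reporter, site 19 bp from the promoter, grew 48 hours at 37°C to select Caulobacter ParB libraries randomised at four specificity codons. Plasmids from before and after were Illumina-sequenced, with three replicate libraries pooled and variants under 10 reads left out. Fitness is the log change in variant-to-wild-type read ratio, rescaled against cognate and non-cognate.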

Row | Variant | one-hybrid fitness for binding parS DNA
1 | PADS | ≤ 0.2
2 | LSQT | ≤ 0.2
3 | NRCT | ≤ 0.2
4 | AANV | ≤ 0.2
5 | KCEF | ≤ 0.2
6 | VKTL | ≤ 0.2
7 | IVLP | ≤ 0.2
8 | PVAD | ≤ 0.2
9 | EMGR | ≤ 0.2
10 | MTQV | ≤ 0.2
11 | DPAQ | ≤ 0.2
12 | PAGA | ≤ 0.2
13 | LFGL | ≤ 0.2
14 | TRKA | ≤ 0.2
15 | KPKG | ≤ 0.2
16 | TLMA | ≤ 0.2
17 | YSMC | ≤ 0.2
18 | QTLV | ≤ 0.2
19 | MRSW | ≤ 0.2
20 | RNVC | 0.599
21 | QCWF | ≤ 0.2
22 | RPSD | ≤ 0.2
23 | TGRW | ≤ 0.2
24 | QGPN | ≤ 0.2
25 | HYSC | ≤ 0.2

Row | Variant | one-hybrid fitness for binding parS DNA
26 | EACC | ≤ 0.2
27 | QSND | ≤ 0.2
28 | YHTS | ≤ 0.2
29 | RTFD | ≤ 0.2
30 | MHNG | ≤ 0.2
31 | TNNL | ≤ 0.2
32 | DLWK | ≤ 0.2
33 | QISS | ≤ 0.2
34 | HPHY | ≤ 0.2
35 | AEYT | ≤ 0.2
36 | ASMI | ≤ 0.2
37 | DSYM | ≤ 0.2
38 | CNTG | ≤ 0.2
39 | NDKM | ≤ 0.2
40 | AWIS | ≤ 0.2
41 | ELSF | ≤ 0.2
42 | GDNG | ≤ 0.2
43 | FVRF | ≤ 0.2
44 | QKSM | ≤ 0.2
45 | RNSN | 0.385
46 | WSYT | ≤ 0.2
47 | AWDV | ≤ 0.2
48 | SFCR | ≤ 0.2
49 | ALRG | ≤ 0.2
50 | ARKW | ≤ 0.2

Row | Variant | one-hybrid fitness for binding parS DNA
51 | TMEC | ≤ 0.2
52 | STDW | ≤ 0.2
53 | PFLC | ≤ 0.2
54 | SYLT | ≤ 0.2
55 | TNRQ | ≤ 0.2
56 | SDAL | ≤ 0.2
57 | QPLA | ≤ 0.2
58 | YNKD | ≤ 0.2
59 | LQMT | ≤ 0.2
60 | CPTH | ≤ 0.2
61 | RINN | 0.469
62 | AQQN | ≤ 0.2
63 | LSPH | ≤ 0.2
64 | KNRC | ≤ 0.2
65 | PIIW | ≤ 0.2
66 | WVWR | ≤ 0.2
67 | RMKW | 0.694
68 | GADD | ≤ 0.2
69 | VTQP | ≤ 0.2
70 | PIHV | ≤ 0.2
71 | FLET | ≤ 0.2
72 | PLYE | ≤ 0.2
73 | VGDL | ≤ 0.2
74 | ANSL | ≤ 0.2
75 | TQDD | ≤ 0.2

Row | Variant | one-hybrid fitness for binding parS DNA
76 | VRLK | ≤ 0.2
77 | TPRH | ≤ 0.2
78 | CPKP | ≤ 0.2
79 | QFHY | ≤ 0.2
80 | MMQR | ≤ 0.2
81 | WTMG | ≤ 0.2
82 | KLAT | ≤ 0.2
83 | TRKT | ≤ 0.2
84 | QIKL | ≤ 0.2
85 | RQTW | 0.229
86 | RKYF | ≤ 0.2
87 | ISFT | ≤ 0.2
88 | CTGR | ≤ 0.2
89 | PAAS | ≤ 0.2
90 | QSCH | ≤ 0.2
91 | PHGC | ≤ 0.2
92 | TPTE | ≤ 0.2
93 | YPER | ≤ 0.2
94 | PSDE | ≤ 0.2
95 | PVCM | ≤ 0.2
96 | PSYM | ≤ 0.2
97 | DITS | ≤ 0.2
98 | SFHW | ≤ 0.2
99 | GFRY | ≤ 0.2
100 | PCFE | ≤ 0.2

Row | Variant | one-hybrid fitness for binding parS DNA
101 | DHVR | ≤ 0.2
102 | HNRV | ≤ 0.2
103 | HVHR | ≤ 0.2
104 | DPMY | ≤ 0.2
105 | RTAF | 0.256
106 | TNGC | ≤ 0.2
107 | PVEA | ≤ 0.2
108 | CGGT | ≤ 0.2
109 | CIAC | ≤ 0.2
110 | MIVR | ≤ 0.2
111 | HIVA | ≤ 0.2
112 | YGAS | ≤ 0.2
113 | PTRK | ≤ 0.2
114 | RDPN | ≤ 0.2
115 | GFHC | ≤ 0.2
116 | EQYG | ≤ 0.2
117 | IKRS | ≤ 0.2
118 | HIMC | ≤ 0.2
119 | EKNL | ≤ 0.2
120 | CHGS | ≤ 0.2
121 | NITR | ≤ 0.2
122 | LNHS | ≤ 0.2
123 | RHSW | ≤ 0.2
124 | MHVR | ≤ 0.2
125 | ASNC | ≤ 0.2

Row | Variant | one-hybrid fitness for binding parS DNA
126 | NMHW | ≤ 0.2
127 | VNRL | ≤ 0.2
128 | IYMV | ≤ 0.2
129 | TSLK | ≤ 0.2
130 | FLGN | ≤ 0.2
131 | ADDC | ≤ 0.2
132 | SMIT | ≤ 0.2
133 | QDFR | ≤ 0.2
134 | NAPS | ≤ 0.2
135 | NRDV | ≤ 0.2
136 | LKRT | ≤ 0.2
137 | TETL | ≤ 0.2
138 | TLER | ≤ 0.2
139 | RQMQ | ≤ 0.2
140 | SRMA | ≤ 0.2
141 | PDKR | ≤ 0.2
142 | CEKR | ≤ 0.2
143 | AMER | ≤ 0.2
144 | SNTT | ≤ 0.2
145 | HNYS | ≤ 0.2
146 | CIMG | ≤ 0.2
147 | LQRE | ≤ 0.2
148 | CMYG | ≤ 0.2
149 | VCTF | ≤ 0.2
150 | PIIG | ≤ 0.2

Row | Variant | one-hybrid fitness for binding parS DNA
151 | PIIC | ≤ 0.2
152 | RKQS | 0.793
153 | DDNE | ≤ 0.2
154 | LQVL | ≤ 0.2
155 | PPIN | ≤ 0.2
156 | ITTS | ≤ 0.2
157 | HKHV | ≤ 0.2
158 | RTAM | 0.311
159 | RHTI | ≤ 0.2
160 | QCPD | ≤ 0.2
161 | SVPW | ≤ 0.2
162 | DTQA | ≤ 0.2
163 | ENDK | ≤ 0.2
164 | RTHS | 0.944
165 | AWIV | ≤ 0.2
166 | PTGW | ≤ 0.2
167 | TAST | ≤ 0.2
168 | WLCC | ≤ 0.2
169 | GPEV | ≤ 0.2
170 | APGA | ≤ 0.2
171 | VYHG | ≤ 0.2
172 | DKCG | ≤ 0.2
173 | IPQK | ≤ 0.2
174 | CMCG | ≤ 0.2
175 | MFQS | ≤ 0.2

Row | Variant | one-hybrid fitness for binding parS DNA
176 | YMYS | ≤ 0.2
177 | VGVG | ≤ 0.2
178 | NNNN | ≤ 0.2
179 | HRWL | ≤ 0.2
180 | NLIS | ≤ 0.2
181 | QAGA | ≤ 0.2
182 | WAAW | ≤ 0.2
183 | PIVT | ≤ 0.2
184 | HAPM | ≤ 0.2
185 | TCIT | ≤ 0.2
186 | DQSP | ≤ 0.2
187 | YENR | ≤ 0.2
188 | MTMS | ≤ 0.2
189 | DGEN | ≤ 0.2
190 | MCAN | ≤ 0.2
191 | PANC | ≤ 0.2
192 | CNVW | ≤ 0.2
193 | NASR | ≤ 0.2
194 | KQET | ≤ 0.2
195 | HRSL | ≤ 0.2
